# From the supplement of paper PMC11417369
# ± gives the standard deviation of the averaged measurements. The list shows a part of the results.
# Tested on: PfAP2-I AP2 domain 3 (GST-tagged)
# Assay: gcPBM binding intensity (ln(normalized median fluorescence intensity)); higher = stronger DNA binding
# In short: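 Alexa488 anti-GST antibody, scanned at 488 nm, detected GST-tagged P. falciparum DNA-binding domains that had been expressed in E. coli and incubated for 1 h on an Agilent 4 × 180k array. The array carried primer-extended double-stranded 36-bp intergenic genomic probes and negative controls. Binding intensity is the highest Masliner-normalised natural-log median intensity across replicate spots of either orientation of each probe.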
row,Sequence,gcPBM binding intensity (ln)
1,ATGTAGACAACATATGAACACACAAAATATTTTTTT [CACACA_site8955],7.72 ± 0.56
2,TTAACAAAATTTTTAACACACAAAAAAAAAAAAAAA [CACACA_site1828],8.2 ± 0.8
3,CCAAAATTTATAAATTGTACATATTTTTAAATTCTT [XGTACX_site833],7.48 ± 0.51
4,ATAAAAGAATTAAATAATCAAAATGATTATTTTATA [CACACA_negctrl_site466],6.97 ± 0.38
5,GATAAATAATAATAAGGTACACATAAAATATTCCTT [XGTACX_site2963],7.62 ± 0.4
6,GGTATAATTCATATAACACACATTTCAATGTTAAAA [CACACA_site2172],7.93 ± 0.38
7,TGTATTAATTTGTAATGTACACATATATGTATTATA [XGTACX_site4152],7.87 ± 0.28
8,TAAGTAAACTTTCTATGTACATATTTTCAAATATTA [XGTACX_site6260],7.78 ± 0.31
9,CTTATATATACATATACACACACACCCATATATATA [CACACA_site8705],8.43 ± 0.59
10,ATGTATGCAAAAATGGTGCATATTAAATGTATAACA [GTGCAC_site9722],10.8 ± 0.49
11,AAAAAAAAAAGAAACACACACATTTGTCTATAATAT [CACACA_site7063],7.71 ± 0.87
12,TTTGTTCTTTTAATGTGTACATATACACTTGTAATA [XGTACX_site2635],7.92 ± 0.47
13,TGACCTTATGTGTTTTGAAGGGGAAAGGAAATGCGC [XGTACX_negctrl_site411],7.78 ± 0.68
14,TATAAAAATAGGATTTGTACATATAAAAAAGGAAAA [XGTACX_site8678],7.79 ± 0.69
15,TAATATAAAAAAGGTACTACACGAAGGAATAAAAAT [XGTACX_site6872],8.35 ± 0.86
16,CAGAAATAGAGATACACACACACATATATTTATGTA [CACACA_site3968],7.46 ± 0.64
17,TATAAATATATGTATGCACACATTTTTTTTGGAAAA [CACACA_site1070],8.55 ± 0.57
18,AATAATTTTTTAAACACACACACATATATATATATA [CACACA_site95],9.32 ± 0.28
19,TGTTTAAAAATAATTTGTACATATATTTTATTTCAT [XGTACX_site1272],7.59 ± 0.38
20,ATAAAGAAATAAAGTTGTACATTATATATATATATA [XGTACX_site7729],9.23 ± 0.25
21,AATACATACGGACACACACACACATATATATATATA [CACACA_site5884],9.52 ± 0.26
22,TCTTTTGTTTAACCTACATGCAGAATATAAGTCTTC [TGCATGCA_site99],7.93 ± 0.68

row,Sequence,gcPBM binding intensity (ln)
1,ATTCATTATTCACCTTGTACACAAATGATTATCGTA [XGTACX_site455],8.19 ± 0.49
2,AGTAAAAAAAATATCTGTACATATTAATATAAATGT [XGTACX_site6234],7.88 ± 0.4
3,AAATATTATTCTTTTATTTTTAAACATATAATTATA [GTGCAC_negctrl_site136],7.7 ± 0.28
4,ATCTAAAAATTTTACGCACACAAGTAAAAAAAAAAA [CACACA_site2485],8.97 ± 0.11
5,TTATACACTGATAAAAGTACATTTGTATGTTTTTTT [XGTACX_site8959],7.63 ± 0.42
6,TTTTATAATCATAATAGTACTTTTTCTTTTTCACAT [XGTACX_site5017],7.67 ± 0.9
7,TAATCATAAAAAAATACACACATATAAAATATAGAT [CACACA_site7020],7.51 ± 0.63
8,AAAAGTTAAGCAACAAATTTTATTTCTTATATATAA [TGCATGCA_negctrl_site134],7.73 ± 0.57
9,ATATTTATAAATTGCACACAAATAATAACATTATAT [CACACA_site5322],8.68 ± 0.13
10,AAAATTCTTATAAGATGTACAATTTGTAACACTATA [XGTACX_site510],7.78 ± 0.35
11,TTATACTCACGTTACACACACACAATATATATATAT [CACACA_site4137],9.095 ± 0.064
12,TTTTTTACAACACGAAAATGAACAATTATAATAAAT [TGCATGCA_negctrl_site301],7.89 ± 0.74
13,TCACATACATTACTTACACACCATATTAAGATATAC [CACACA_site4415],8.31 ± 0.21
14,TTTTGTATATATTATTGTACTTTTAATATAGATCGT [XGTACX_site5830],7.85 ± 0.34
15,AAATAAATATATAATACACACAAAAATATAAAATGT [CACACA_site3711],8.1 ± 0.54
16,TAACATAAATCCATACGTACCTATATATATATAATA [XGTACX_site2626],7.72 ± 0.49
17,ATTTATATTAAAAGTGTGCACTTTTTTTTTTTTTTT,9.77 ± 0.085
18,TCATTCCATACTTTAACACACAAATATATTTAATCC [CACACA_site145],7.96 ± 0.68
19,ATATATATATATATATGTACATATTCACTTATATTT [XGTACX_site5324],9.56 ± 0.65
20,TTTTTTTTTTTGTTTTGTACATAAATTGCAACCAAT [XGTACX_site8949],8.45 ± 0.74
21,TGTAGACTACATAGTAGTACATAATATATACATATA [XGTACX_site367],7.46 ± 0.29
22,TTTTCTTTTAAACATATATATATATATATATATATA [XGTACX_negctrl_site559],9.27 ± 0.54
